# Laboratory results taken from PubChem BioAssay AID463173 (ICCB-Longwood Screening Facility, Harvard Medical School, 2010).
# The campaign covered roughly 52,000 compounds. About 1,700 (3.3%) were called active. Cut-off read from the data, not from the text of the source: active = survival mostly below about 52% (no sharp cut-off); inactive = mostly above about 56%. The list shows a part of the results.
# Tested on: Wild type
# Assay: S. aureus survival, RN4220 and DeltatarO strains – OD600, teichoic acid synthesis inhibitors, primary screen (AID 463173)
# Details: S. aureus RN4220 wild type/DeltatarO growth, OD600, 18 h, hits give low values, screened at 18.75 µg/mL (by protocol)
row,SMILES,survival
1,Cc1ccccc1Nc1c(-c2ccc(Br)cc2O)nc2sccn12,inactive: 74%
2,O=C(Nc1ccc(Cl)c(-c2nc3ccccc3o2)c1)c1ccc(-c2cccc([N+](=O)[O-])c2)o1,inactive: 62%
3,COc1ccccc1N1CCN(C(c2ccc(Cl)cc2)c2nnc(-c3cccc(F)c3)o2)CC1 (centres undefined),inactive: 78%
4,CCCSc1oc(-c2ccco2)nc1S(=O)(=O)c1ccc(Cl)cc1,inactive: 49%
5,N#Cc1nc2ccccc2[nH]1,inactive: 108%
6,COc1ccccc1CNC(=O)c1cnc(N(C)C)nc1,inactive: 85%
7,COc1ccc(CC(=O)Nc2sc3c(c2C(=O)Nc2cccc(C)c2)CCCCC3)cc1,inactive: 63%
8,CC1CCn2c(nc3cc(C(=O)NCCc4ccccc4)ccc32)C1 (centres undefined),inactive: 82%
9,CCOc1ccc(C(=O)Nc2nc(-c3ccc(Br)cc3)ns2)cc1,inactive: 84%
10,COc1ccc(NC(=O)Cn2c(SCc3ccc(F)cc3)nc3cccnc32)c(OC)c1,inactive: 81%
11,COc1cccc(N2CCN(C(=O)c3cc4c(=O)n(Cc5cccnc5)ccc4nc3C)CC2)c1,inactive: 75%
12,COC(=O)C(NC(=O)CCc1c(C)nc2cc(-c3cccc(F)c3)nn2c1C)C(C)C (centres undefined),inactive: 80%
13,Cc1ccc2c(=O)cc(C(=O)Nc3ccc(S(=O)(=O)N4CCCCC4)cc3)oc2c1,inactive: 87%
14,COC(=O)c1ccccc1NC(=O)CCC(=O)N1CC(C)Sc2ccccc21 (centres undefined),inactive: 79%
15,CCOc1ccc(CNC(=O)Nc2ccc3c(c2)N(C)C(=O)c2ccccc2S3)cc1,inactive: 90%
16,COc1ccc(NC(=O)C2CCCN(c3cnccn3)C2)c(OC)c1 (centres undefined),inactive: 113%
17,CCC(Cc1ccccc1)NC(=O)CCS(=O)(=O)c1cc2c(cc1Cl)NC(=O)CO2 (centres undefined),inactive: 83%
18,CCC(C)n1c(=N)c(C(=O)NC2CCCC2)cc2c(=O)n3ccccc3nc21 (centres undefined),inactive: 76%
19,Cc1ccc(NC(=O)CSc2cn(CC(=O)N3CCOCC3)c3ccccc23)cc1Cl,inactive: 88%
20,Cc1ccc(NC(=O)CN2C(=O)CSc3ccc(S(=O)(=O)N(C)C)cc32)c(C)c1,inactive: 72%
21,Cn1c(=O)c2nc3ccc(NC(=O)C(F)(F)F)cc3nc2n(C)c1=O,inactive: 73%
22,Cc1ccc2c(c1)C(c1ccccc1)N(C(=O)c1ccc(S(=O)(=O)N3CCCC3)cc1)CC(=O)N2 (centres undefined),inactive: 79%
23,COc1ccc2sc(N(Cc3cccnc3)C(=O)c3cccs3)nc2c1,inactive: 64%

row,SMILES,survival
1,Cc1ccc(-n2ncc3c(NC4CCCC4)ncnc32)cc1,inactive: 87%
2,CCOC(=O)/C(C#N)=C/c1ccc(-c2ccccc2)o1,inactive: 81%
3,O=S(=O)(c1ccccc1)c1nnn2c1nc(N1CCN(c3ccccc3)CC1)c1cc(Cl)ccc12,inactive: 87%
4,COc1ccc2sc(N(Cc3cccnc3)C(=O)C3COc4ccccc4O3)nc2c1 (centres undefined),inactive: 82%
5,CCCn1cc(S(=O)(=O)c2ccccc2)c(=O)c2cc(F)c(N3CCCCCC3)cc21,inactive: 80%
6,O=C(Cn1cc2c(n1)CCCC2)Nc1cc(C(F)(F)F)ccc1Cl,inactive: 87%
7,Cc1cc(C)cc(NC(=O)c2sc3nc4n(c(=O)c3c2C)N=C(c2ccc(F)cc2)CS4)c1,inactive: 135%
8,Cc1nc(SCc2ccccc2Cl)c(C#N)c(C)c1C,active: -2%
9,O=C(Nc1ccc2nc(SCCOc3ccccc3Cl)sc2c1)c1ccco1,inactive: 41%
10,CCc1cccc(NC(=O)CSc2n[nH]c(-c3ccccc3Cl)n2)c1,inactive: 87%
11,Cc1nnc(N2CCN(c3cccc(Cl)c3)CC2)c2c1nnn2Cc1ccc(F)cc1,inactive: 85%
12,COc1cccc(-c2nn(C)c3sc(C(=O)NCCc4cccc(C)c4)cc23)c1,inactive: 139%
13,COc1ccc(C)cc1NC(=O)c1c(C(=O)Nc2cccc(C)c2C)sc2nc(C)cc(=O)n12,inactive: 84%
14,CCCNC(=O)Cn1ncc2c3ccccc3n(CCC)c2c1=O,inactive: 133%
15,CCOC(=O)C1CCCN(C(=O)Cn2ncc3c(C)n(Cc4ccc(F)cc4)c(C)c3c2=O)C1 (centres undefined),inactive: 126%
16,CCOc1ccc(OCC)c(NC(=O)c2cnn(-c3ccc(F)cc3)c2C2CCN(C(=O)OC(C)(C)C)CC2)c1,active: 14%
17,C=CCn1c(C)c(/C=C/C2=CCN(C)CC2)c2ccccc21,inactive: 112%
18,CC1C(=O)OC(c2ccccc2)C(C)(C)C1=O (centres undefined),inactive: 118%
19,CCOc1ccc2c(c1)c(=O)c(C(=O)c1ccc3c(c1)OCO3)cn2Cc1cccc(F)c1,inactive: 91%
20,COc1ccc(-n2ccnc(NCc3cccs3)c2=O)cc1,active: -3%
21,CCOc1ccc(-n2c(C)nc3cc(C(=O)NCc4ccc(C)cc4)ccc32)cc1,inactive: 99%
22,Cc1ccc2[nH]c(=O)c(CN(CCCO)C(=O)NC3CCCCC3)cc2c1,inactive: 104%
23,COc1ccc(-c2ccc(-c3noc(-c4cc(OC)cc(OC)c4)n3)c(OC)n2)cc1,inactive: 49%

row,SMILES,survival
1,CCOc1ccc(-c2nnc(SCC(=O)Oc3ccccc3)o2)cc1,inactive: 81%
2,Cc1ccc(C(=O)Nc2nnc(S(=O)(=O)N(C)Cc3ccc(F)cc3)s2)cc1,inactive: 47%
3,CCn1c(=O)cc(SCC(=O)Nc2cc(Cl)ccc2OC)c2ccccc21,inactive: 66%
4,CC1CCCN(c2nc(-c3ccccc3O)nc3ccccc23)C1 (centres undefined),active: -3%
5,CCOc1cccc(C(=O)Nc2ccc(-c3nc4cc(C)cc(C)c4o3)cc2)c1,inactive: 82%
6,CCc1ccccc1NC(=O)Cn1nnc(C(=O)Nc2ccc(OC)c(OC)c2)c1N,inactive: 76%
7,CCOC(=O)c1ccccc1NC(=O)c1nn(-c2ccc(C)cc2)c(=O)n(C)c1=O,inactive: 127%
8,CCc1ccc(S(=O)(=O)N2CCN(c3ccc(Cl)c(Cl)c3)CC2)cc1,inactive: 113%
9,Cc1cccc(NC(=O)c2oc3ccc(S(=O)(=O)N(C)C4CCCCC4)cc3c2C)c1C,inactive: 126%
10,CCCCN(Cc1ccco1)C(=O)c1cc2c(s1)-c1c(C)cccc1OC2,active: 13%
11,Cc1cccc(OCCOCCn2c(-c3ccc(Cl)cc3)nc3ccccc3c2=O)c1C,inactive: 67%
12,Cc1c(NC(=O)C(F)(F)F)ccc2nc3c(=O)n(C)c(=O)n(C)c3nc12,inactive: 85%
13,COc1c(Cl)cc(Cl)cc1/C=C(\C#N)c1nc(-c2ccc(Cl)cc2)cs1,inactive: 148%
14,CCOCCCNC(=O)Cn1cc2c(n1)-c1c(oc(C(=O)N3CCCC3)c1C)CC2,inactive: 85%
15,CCc1ccccc1NC(=O)c1cnn(-c2ccc(F)cc2)c1C1CCNCC1,inactive: 73%
16,COc1ccc(-n2ncc(C(=O)NCCCN3CCCCC3)c2C2CCN(C(=O)OC(C)(C)C)CC2)cc1,inactive: 69%
17,COc1ccc(-c2cc(-c3ccc4c(c3)NC(=O)CO4)nc3c2COc2ccc(C)cc2-3)cc1,inactive: 77%
18,Cc1ccc(C(C)C)c(OCCCn2c(=O)oc3ccc(C)cc32)c1,active: -10%
19,Cc1cc(C)c(S(=O)(=O)N2CCC(N3CCN(Cc4ccc(F)cc4)C(=O)C3=O)CC2)c(C)c1,inactive: 75%
20,CC(C)c1ccc(NC(=O)c2cnn3c(C(F)F)cc(-c4ccccc4)nc23)cc1,inactive: 83%
21,Cc1ccccc1NC(=O)c1ccc(F)c(S(=O)(=O)N2CCc3ccccc3C2)c1,inactive: 55%
22,COC(=O)Cn1ccc2cc(S(=O)(=O)N3CCCCC3)ccc21,inactive: 95%
23,Cc1ccc(C)c(N2CCN(C(=O)C3CCC(CNS(=O)(=O)c4ccc(Br)s4)CC3)CC2)c1 (centres undefined),inactive: 76%

row,SMILES,survival
1,O=C(O)COc1ccccc1C1Nc2ccccc2-c2nnc(SCc3ccc(Cl)cc3)nc2O1 (centres undefined),inactive: 68%
2,COc1cccc(NC(=O)Cn2c(=O)n(CCCCC(=O)NCc3ccc4c(c3)OCO4)c(=O)c3ccccc32)c1,inactive: 92%
3,CCOc1ccccc1C(=O)Nc1cc(-c2nc3cccnc3s2)ccc1C,inactive: 67%
4,CCC(Sc1ncnc2sc3c(c12)CCCC3)C(=O)OCC(C)C (centres undefined),active: -3%
5,CCOC(=O)N1CCC(NC(=O)c2cnn(-c3ccc(C)cc3)c2C2CCN(C(=O)OC(C)(C)C)CC2)CC1,inactive: 69%
6,COc1ccc(-n2c(SCc3nc(-c4ccc(Cl)cc4)no3)nnc2-c2ccncc2)cc1,inactive: 77%
7,COc1ccc(Nc2oc(-c3ccc(COc4ccccc4)o3)nc2C#N)cc1,inactive: 116%
8,N#Cc1ccc(NC(=O)c2ccc3c(c2)nnn3C2CCCC2)cc1,inactive: 134%
9,CCCS(=O)(=O)N1CC(=O)N(c2cc(C)cc(C)c2)C(C)(C(=O)NC2CCCCCC2)C1 (centres undefined),inactive: 81%
10,Oc1cccc(Nc2cc(-c3ccccc3)ncn2)c1,inactive: 71%
11,CC(C)(C)C(=O)Nc1ccc2nc(SCCOc3ccccc3Cl)sc2c1,inactive: 99%
12,CCOc1ccc(-c2cc(CCCC(=O)NCCc3ccc(OC)c(OC)c3)no2)cc1,inactive: 125%
13,Cc1ccc(NC(=O)CCc2c(C)nc3ncnn3c2C)cc1Cl,inactive: 75%
14,Cc1ccccc1NC(=O)Cn1nnc(C(=O)NCc2cccs2)c1N,inactive: 100%
15,Cc1cccc(NC(=O)CN2C(=O)CC(c3ccccc3)Sc3ccccc32)c1 (centres undefined),inactive: 77%
16,CC(CNC(=O)c1csc2c1CCCCC2)c1ccccc1 (centres undefined),active: 0%
17,CCc1ccc(NC(=O)Cn2nnc(C(=O)Nc3ccc(F)cc3)c2N)cc1,inactive: 124%
18,O=C(Nc1cccc(O)c1)c1cc(-c2ccccc2F)no1,inactive: 89%
19,CCc1ccc(NS(=O)(=O)c2ccc(NC(=O)N3CCCC3)cc2)cc1,inactive: 78%
20,Cc1ccc(C)c(CSc2cn(CCNC(=O)c3cccs3)c3ccccc23)c1,inactive: 78%
